Measured values from PubChem BioAssay AID2676 (National Center for Advancing Translational Sciences (NCATS), 2010).
Out of some 370,000 compounds screened, about 1,100 (0.3%) were called active. The shares of active, inactive and inconclusive entries below differ from those in the screen. The call rests on the fitted dose curve; in most records, active means well fitted activation curve with a large enough effect; inconclusive means small, poorly fitted or top-dose-only effect; inactive means flat fitted curve, though single readings scatter. Potencies of inconclusive entries are doubtful fits and often do not repeat. More than one record can exist for a structure, and the calls need not agree.

Biological target: Relaxin receptor 1 (Homo sapiens) (UniProt Q9HBX9)
Sequence of UniProt Q9HBX9 (Q9HBX9 whole entry, looked up): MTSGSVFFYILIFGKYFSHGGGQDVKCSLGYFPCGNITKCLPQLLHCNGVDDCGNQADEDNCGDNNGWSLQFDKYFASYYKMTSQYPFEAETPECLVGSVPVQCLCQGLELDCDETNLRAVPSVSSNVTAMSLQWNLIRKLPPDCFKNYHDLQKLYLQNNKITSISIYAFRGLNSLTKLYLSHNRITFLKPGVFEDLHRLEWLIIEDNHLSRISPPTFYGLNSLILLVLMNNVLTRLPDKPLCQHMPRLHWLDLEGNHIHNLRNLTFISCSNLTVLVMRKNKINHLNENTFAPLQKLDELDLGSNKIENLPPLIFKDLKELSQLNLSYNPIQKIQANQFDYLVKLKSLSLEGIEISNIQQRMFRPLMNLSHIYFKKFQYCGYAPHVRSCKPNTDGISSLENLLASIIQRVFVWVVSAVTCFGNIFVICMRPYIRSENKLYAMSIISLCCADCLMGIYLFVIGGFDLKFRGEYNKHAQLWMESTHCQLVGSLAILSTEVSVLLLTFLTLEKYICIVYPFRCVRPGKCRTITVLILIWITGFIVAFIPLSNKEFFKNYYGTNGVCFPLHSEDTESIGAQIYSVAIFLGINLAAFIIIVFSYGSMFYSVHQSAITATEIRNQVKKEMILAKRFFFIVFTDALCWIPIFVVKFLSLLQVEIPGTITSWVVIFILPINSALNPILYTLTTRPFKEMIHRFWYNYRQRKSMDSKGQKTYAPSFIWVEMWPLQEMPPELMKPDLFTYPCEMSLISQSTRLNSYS
Assay: qHTS Assay for Agonists of the Relaxin Receptor RXFP1; further: nearly all actives have a fitted effect of over 60% in size
Conditions: HEK293T-RXFP1 cAMP TR-FRET, 30 min; series mostly up to 57.5 µM
In short: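 HEK293T cells stably expressing RXFP1 were pretreated with the PDE4 inhibitor Ro 20174, exposed to compounds for 30 min at 37C, lysed, and cAMP was read by TR-FRET. Data normalized to buffer (basal) and 29 nM porcine relaxin (100%).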
Potency means the concentration at half of the fitted maximal effect; tags describe the fitted curve by direction and shape.

SMILES | Potency
CC(C)COc1ccc(C(=O)N2C(=O)c3ccc(N)cc3C2=O)cc1 | inconclusive: 31.6 µM [activator, single point]
Clc1cccc(Cl)c1CO/N=C/c1c(-c2ccccc2)nc2n1CCS2 | inactive
Cc1cc(C)n(-c2ccc(C(=O)Nc3ccc(C)c(S(=O)(=O)N4CCOCC4)c3)cc2)n1 | inactive
COc1ccc(OC)c(C(C(=O)NC2CCCCC2)N(C(=O)c2snc(C(N)=O)c2N)c2ccccc2OC)c1 (stereo not drawn) | inconclusive: 39.8 µM [activator, single point]
Cc1nc(SCC(=O)Nc2ccccc2C)cc(-c2ccccc2)n1 | inconclusive: 35.5 µM [activator, single point]
COC(=O)c1ccc(NC(=O)Cn2cnc3c2c(=O)n(C)c(=O)n3C)cc1 | inconclusive: 15.8 µM [activator, partial curve]
Cc1ccc(Cl)cc1NC(=O)COC(=O)Cn1cnc2c1c(=O)n(C)c(=O)n2C | inconclusive: 31.6 µM [activator, single point]
Cc1ccc(CNC(=O)CCc2nnc3ccc(NCCCN4CCCC4=O)nn23)cc1 | inconclusive: 20 µM [activator, partial curve]
COc1ccccc1C(CCN(Cc1cccs1)C(C)=O)c1ccco1 (stereo not drawn) | inactive
COc1ccc2oc(C(=O)Nc3nccs3)c(C)c2c1 | inconclusive: 28.2 µM [activator, single point]
Cn1c(N)c(C(=O)COC(=O)CCc2ccccc2)c(=O)n(C)c1=O | inconclusive: 20 µM [activator, partial curve]
CC1(C)O[C@@H]2[C@H](O1)[C@@H](COS(=O)(=O)O)O[C@H]2n1cnc2c(N)ncnc21 | active: 15.8 µM
Cc1ccc(-c2cc(C(=O)NCc3cnn(C)c3C)c3cc(Br)ccc3n2)cc1 | active: 28.2 µM
CC(=O)Nc1sc(/C(C#N)=C\c2cccc(Cl)c2)nc1-c1ccc(C)cc1 | inactive
COc1ccc(NC(=O)C2CCN(S(=O)(=O)c3ccc4[nH]c(=O)ccc4c3)CC2)c(OC)c1 | inconclusive: 31.6 µM [activator, single point]
Cc1cc2cc(C)c(SCC(=O)NCc3ccco3)nc2cc1C | inconclusive: 39.8 µM [activator, single point]
Cc1cn2c(=O)cc(COc3cccc(NC(=O)c4ccccc4C)c3)nc2s1 | inconclusive: 25.1 µM [activator, single point]
Cc1cc(C)cc(C(=O)Nc2ccc(-c3nc4ncccc4o3)cc2)c1 | inconclusive: 22.4 µM [activator, single point]
CCOC(=O)c1ccc(NC(=O)CCCc2nc(-c3ccccc3Cl)no2)cc1 | inactive
Cn1cc([N+](=O)[O-])c(C(=O)Nc2ccc3nc(-c4ccccc4)[nH]c3c2)n1 | inactive
CCOC(=O)c1nnn2c1nc(SCC(C)=O)c1ccccc12 | active: 15.8 µM
COc1ccc(C(=O)Nc2ccc3nc4n(c(=O)c3c2)CCCCC4)cc1OC | inconclusive: 35.5 µM [activator, single point]
CCOc1ccc(NC(=O)N2CCOc3ccccc32)cc1 | inconclusive: 25.1 µM [activator, single point]

SMILES | Potency
NCCCCCC(=O)N/N=C/c1coc2ccccc2c1=O | inconclusive: 35.5 µM [activator, single point]
Cc1nn(-c2ccccc2)c(Cl)c1C(=O)N1CCN(c2ncnc3c2cnn3-c2ccccc2)CC1 | inactive
O=C(NC(=S)Nc1cccc([N+](=O)[O-])c1)c1ccccc1 | inactive
COc1cc(C(=O)Nc2cccc(C)c2C)ccc1OCC(=O)N1CCOCC1 | inactive
COc1cccc(/C=C/C(=O)N(C)CC(=O)Nc2ccc(Cl)c(C(F)(F)F)c2)c1 | inactive
Cc1ccc(-c2nonc2NC(=O)c2ccc(F)cc2)cc1C | inconclusive: 25.1 µM [activator, partial curve]
Cc1sc2ncnc(SCC(=O)N(C)C3CCS(=O)(=O)C3)c2c1C (stereo not drawn) | inconclusive: 11.2 µM [activator, partial curve]
O=C(c1cc2c(s1)-c1ccccc1OC2)N1CCN(c2ccccc2)CC1 | inconclusive: 14.1 µM [activator, partial curve]
Cc1ccc(C(=O)Nc2ccc(OCc3cc(=O)n4c(C)csc4n3)cc2)cc1 | inconclusive: 31.6 µM [activator, single point]
CCOC(=O)Cc1cc(=O)n2[nH]c(C)c(-c3ccccc3)c2n1 | inactive
CC1CCN(C(=O)/C=C/c2ccc(C(C)(C)C)cc2)CC1 | inactive
CCOC(=O)c1c(C)[nH]c(C(=O)CSc2nccc(C)n2)c1C | inconclusive: 39.8 µM [activator, single point]
C=CCN1C(=O)c2ccccc2Sc2ccc(C(=O)NCC(OC)OC)cc21 | inconclusive: 31.6 µM [activator, single point]
Cc1ccc(Cn2c(CCC(=O)O)nc3ncccc3c2=O)cc1 | inconclusive: 17.8 µM [activator, partial curve]
COc1cc(-c2n[nH]c(=S)n2-c2ccc(C)cc2)cc(OC)c1OC | inactive
CC(=O)c1cccc(Nc2nc(=O)c3cccnc3s2)c1 | inactive
Cc1ccccc1OCC(=O)Nc1ccc(-c2nc3ncccc3o2)cc1 | inconclusive: 28.2 µM [activator, single point]
COc1ccc(CNC(=O)CSc2nnc(NC(=O)c3ccccc3F)s2)cc1 | inconclusive: 39.8 µM [activator, single point]
COc1cc(-c2nc3ccc(N4CCN(C)CC4)cc3[nH]2)cc(OC)c1OC | inconclusive: 31.6 µM [activator, single point]
Cc1cccc2c1-c1sc(C(=O)N(C)c3cccc(C(F)(F)F)c3)cc1CO2 | inconclusive: 28.2 µM [activator, partial curve]
O=C(Cn1c(=O)n(-c2ccccc2Cl)c(=O)c2sc3ccccc3c21)NC1CCCCC1 | inconclusive: 28.2 µM [activator, single point]
CC(=O)N=c1scc(-c2ccccc2)n1-c1cccc(O)c1 | inconclusive: 10 µM [activator, partial curve]
Cc1ccc(CNC(=O)CCc2nnc3ccc(N4CCC5(CC4)OCCO5)nn23)cc1 | active: 17.8 µM

SMILES | Potency
Cc1cc(CNC(=O)Cn2cc([N+](=O)[O-])cn2)c2ccccc2n1 | inconclusive: 25.1 µM [activator, partial curve]
Cc1ccc(-c2cc(C(F)(F)F)c(C#N)c(SCC(=O)Nc3ccccc3)n2)cc1 | inconclusive: 17.8 µM [activator, partial curve]
O=c1oc2cc(OCc3ccc(F)cc3F)ccc2cc1-c1ccccn1 | inactive
Cc1ccc(-n2nnc(C(=O)Nc3cc(F)ccc3F)c2C)cc1F | inactive
COc1cccc(COC(=O)c2cc(S(=O)(=O)N3CCCCC3)ccc2N2CCOCC2)c1OC | inconclusive: 39.8 µM [activator, single point]
O=C(CSc1ccccc1)Nc1ccc(-c2nc3ccccc3[nH]2)cc1 | inactive
CCC(C)NC(=O)CSc1nc2c(sc3ccccc32)c(=O)n1Cc1ccccc1Cl (stereo not drawn) | inconclusive: 31.6 µM [activator, single point]
CC(=O)c1ccc(NC(=O)COCc2cc(-c3ccco3)on2)cc1 | inactive
COc1ccc2c(c1)c1c(c(=O)n(-c3cccc(Cl)c3)c(=O)n1CC(=O)N1CCCC1)n2C | inconclusive: 31.6 µM [activator, partial curve]
Cc1coc2c1c(C)cc1oc(=O)c(CC(=O)NCC(=O)N[C@H](C(=O)O)C(C)C)c(C)c12 | inconclusive: 28.2 µM [activator, partial curve]
O=C(C1=C(O)C(=O)N(c2ncccn2)C1c1ccc(Cl)cc1)c1ccco1 (stereo not drawn) | inconclusive: 28.2 µM [activator, partial curve]
CC(C)(C)C(=O)/C=C(\N)c1ccncc1 | inactive
O=C1C(=O)N(c2ccccn2)C(c2ccc(Br)cc2)/C1=C(/O)c1ccc(Br)cc1 (stereo not drawn) | inconclusive: 25.1 µM [activator, partial curve]
Cc1cccc2sc(NC(=O)c3ccc(OCC4CCCO4)cc3)nc12 (stereo not drawn) | inconclusive: 39.8 µM [activator, single point]
CCC(=O)c1cc2c(cc1NC(=O)c1ccccc1F)OCCO2 | inconclusive: 39.8 µM [activator, single point]
COc1cc(NC(=O)c2oc3c(c2C)-c2nn(Cc4cccc(Cl)c4)cc2CC3)cc(OC)c1 | inconclusive: 22.4 µM [activator, single point]
COC(=O)c1c(NC(=O)Cn2cc([N+](=O)[O-])cn2)sc2c1CCC2 | inactive
CN1C(=O)C(=O)/C(=C(/O)c2ccc(Br)cc2)C1c1ccc(F)cc1 (stereo not drawn) | inconclusive: 35.5 µM [activator, partial curve]
S=c1[nH]cc(-c2ccc(Cl)cc2)n1Cc1ccccc1 | inconclusive: 39.8 µM [activator, single point]
Cc1cc([N+](=O)[O-])nn1CC(=O)Nc1cccc2nonc12 | inconclusive: 17.8 µM [activator, partial curve]
COc1ccc2c(c1)c1nc3ccccc3nc1n2CCCN1C(=O)c2ccccc2C1=O | inconclusive: 39.8 µM [activator, single point]
Cc1oc(-c2ccccc2F)nc1Cn1c(SCc2cccc(C(F)(F)F)c2)nc2ccncc21 | inconclusive: 39.8 µM [activator, single point]
